# Measurements: PubChem BioAssay AID1478 (National Center for Advancing Translational Sciences (NCATS), 2009)
# Among all 200,000 compounds or so, about 860 (0.43%) were called active. Inconclusive means that the source gave no clear call. Such entries were picked first, then a sample of the others. Calls come from the whole dose curve; as a rule, active = well fitted inhibition curve with a large enough effect; inconclusive = small, poorly fitted or top-dose-only effect; inactive = flat fitted curve, though single readings scatter. Where the call is inconclusive, the potency comes from a doubtful curve fit.
# Target: Cruzipain (Trypanosoma cruzi) (UniProt P25779)
# UniProt P25779, sequence (P25779 whole entry, looked up): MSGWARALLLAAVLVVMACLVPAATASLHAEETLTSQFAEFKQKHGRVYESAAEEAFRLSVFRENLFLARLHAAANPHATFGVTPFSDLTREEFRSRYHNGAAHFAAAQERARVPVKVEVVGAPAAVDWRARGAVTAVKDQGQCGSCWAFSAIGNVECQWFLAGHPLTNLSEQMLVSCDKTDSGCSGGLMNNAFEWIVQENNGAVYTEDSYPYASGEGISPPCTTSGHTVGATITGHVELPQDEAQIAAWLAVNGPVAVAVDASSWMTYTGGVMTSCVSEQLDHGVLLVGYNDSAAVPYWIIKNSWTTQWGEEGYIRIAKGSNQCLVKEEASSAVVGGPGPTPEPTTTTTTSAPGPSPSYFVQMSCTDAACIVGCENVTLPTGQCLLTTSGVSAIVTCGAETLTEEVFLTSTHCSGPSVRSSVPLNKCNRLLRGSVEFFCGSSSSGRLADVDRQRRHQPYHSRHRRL
# Test: qHTS Assay for Promiscuous and Specific Inhibitors of Cruzain (with detergent); note: nearly all actives have a fitted effect of over 40% in size
# Details: purified cruzain, Z-FR-AMC fluorescence, 0.01% Triton
# Procedure: Cruzain (3.4.22.51) is a cysteine protease from the tropical parasite Trypanosoma cruzi. Dual qHTS experiment was performed against the NCGC compound collection in order to 1) identify novel inhibitors of the enzyme and 2) profile the compound collection for promiscuous inhibitors operating via colloidal aggregation (by performing detergent-free and detergent-containing comparison screens). Cruzain was assayed by the use of fluorogenic coumarin-based substrate Z-FR-AMC: proteolytic cleavage releases AMC, whose fluorescence is measured at 360 nm excitation and 450 nm emission. Purified cruzain was supplied by the labs of Prof. James McKerrow and Brian Shoichet, UC San Francisco.
# This assay had 0.01% Triton X-100 concentration. See also releated assay "qHTS Assay for Promiscuous and Specific Inhibitors of Cruzain (without detergent)" with 0.00005% Triton X-100.
# See following references for additional details:
# Assay Provider: Shoichet, Brian; University of California, San Fancisco
# Screening Center PI: Austin, C.P.
# Screening Center: NIH Chemical Genomics Center [NCGC]
# Buffer: 100 mM Sodium Acetate, pH 5.5, 5 mM DTT, Triton X-100 concentration: 0.01%.
# Buffer in columns 3 and 4 as negative control (no enzyme).
# Substrate solution: 2 uM final concentration of Z-FR-AMC (catalog number I-1160, Bachem) dispensed throughout the plate.
# Enzyme: 1.5 nM Cruzain final concentration in columns 1, 2, 5-48. Column 1 is neutral (100% activity). Column 2 contained titration of covalent inhibitor K11777, starting concentration 1 mM, then 1:2 dilution in duplicate).
# Three uL of enzyme or buffer were dispensed to 1536-well Greiner black solid bottom plates. Compounds and controls (23 nL) were transferred via Kalypsys PinTool. The plates were incubated for 15 min at room temperature, and then 1 uL of substrate solution was added to start the reaction. The plates were immediately transferred to and read 4 times every 30 seconds for 2 min on ViewLux High-throughput CCD imager (Perkin-Elmer) using 360 nm excitation and 450 nm emission fluorescence protocol. The fluorescence intensity difference between the third and the first time points (time lapse of 60 seconds) was used to compute reaction progress.
# Potency is the fitted concentration of half-maximal effect; tags give direction and shape of the fitted curve.
Compound,Potency,"max response, negative = inhibition"
C=CCOC(=O)/C(=C/c1ccco1)NC(=O)/C=C/c1ccccc1,active: 28.2 µM,–
CCOc1ccccc1N=c1oc2cc(O)ccc2cc1C(=O)NCC1CCCO1 (stereo not drawn),"inconclusive: 25.1 µM [inhibitor, single point]",–
CCC(/C=C1\Sc2ccc(OC)cc2N1CCO)=C\c1sc2ccc(OC)cc2[n+]1CCO,"inconclusive: 17.8 µM [inhibitor, partial curve]",–
COC(=O)c1cccc(NC(=O)CSc2nc(=O)cc(N)n2-c2ccccc2)c1,"inconclusive: 31.6 µM [inhibitor, single point]",–
O=C(NCCN1CCOCC1)c1cc2c(=O)n3ccccc3nc2n1Cc1ccccc1,"inconclusive: 31.6 µM [inhibitor, single point]",–
CC(=O)NCC(=O)OC(C(=O)c1ccccc1)c1ccc(Cl)cc1 (stereo not drawn),"inconclusive: 25.1 µM [inhibitor, single point]",–
Cc1cc(F)ccc1NC(=O)c1c(C)oc2c1C1=NCCN1C=N2,–,inactive: 7.08%
Cc1c(Cl)ccc2sc(N3CCN(C(=O)CS(=O)(=O)c4ccccc4)CC3)nc12,–,inactive: 2.74%
O=C(N/N=C1/C(=O)c2cccc3cccc1c23)c1ccc(Cl)cc1,active: 10 µM,–
CCOC(=O)c1c(NC(=O)COC(=O)Cn2c(C(F)(F)F)nc3ccccc32)sc(C)c1C,–,inactive: -6.37%
O=C(CSc1nnc(-c2ccccn2)n1Cc1ccco1)c1ccccc1,–,inactive: -4.9%
Cc1ccc(CNC(=O)c2cc(S(=O)(=O)N3CCCCC3)cn2C)cc1,"inconclusive: 14.1 µM [inhibitor, partial curve]",–
COc1cc(/C=N/NC(=O)[C@H](Cc2c[nH]c3ccccc23)NC(=O)OCC(C)C)cc([N+](=O)[O-])c1O,"inconclusive: 28.2 µM [inhibitor, single point]",–
O=C(Cc1ccccc1)Nc1ccc(N2CCCC2)cc1,"inconclusive: 39.8 µM [inhibitor, single point]",–
C#CC(C)(C)NS(=O)(=O)c1cc(-c2nnc(Nc3ccc(C)cc3)c3ccccc23)ccc1C,–,inactive: -2.58%
CC1=C(C(=O)OCc2ccccc2)C(c2ccc(Cl)cc2Cl)NC(=O)N1CCCCCC(=O)O (stereo not drawn),"inconclusive: 25.1 µM [inhibitor, single point]",–
O=C(c1ccc2nc(-c3ccco3)c(-c3ccco3)nc2c1)N1CCC2(CC1)OCCO2,active: 25.1 µM,–
Cn1ncc(Cl)c1C(=O)Nc1cccc(Cl)c1,"inconclusive: 28.2 µM [inhibitor, single point]",–
Cc1ccc(NC(=O)C(=O)NCCc2sc(-c3ccc(Cl)cc3)nc2C)cc1C,–,inactive: 2.63%
N=c1c(C(=O)NCC2CCCO2)cc2c(=O)n3ccccc3nc2n1CCCO (stereo not drawn),"inconclusive: 35.5 µM [inhibitor, single point]",–
Cc1cc(Cl)cc(Cl)c1OCC(=O)NCc1ccco1,"inconclusive: 25.1 µM [inhibitor, single point]",–
CCCN(C(=O)Cn1cnc2sc(C)c(S(=O)(=O)N3CCN(c4ncccn4)CC3)c2c1=O)c1cccc(C)c1,–,inactive: -2.58%
N#Cc1c(NC(=O)CN2CCOCC2)oc(-c2ccccc2)c1-c1ccccc1,–,inactive: -6.65%

Compound,Potency,"max response, negative = inhibition"
O=C(Cn1cc(S(=O)(=O)N2CCN(c3ccccc3F)CC2)c2ccccc2c1=O)Nc1ccc(F)cc1Cl,–,inactive: -1.27%
CC(/C=C/c1ccccc1)=N/O,"inconclusive: 17.8 µM [inhibitor, partial curve]",–
CC(C)C[C@H](N)c1nnc(S(=O)(=O)Cc2cccc(F)c2)o1,active: 11.2 µM,–
Cc1cccn2c(=O)c3cc(C(=O)NC4CCCC4)c(=N)n(C4CCCC4)c3nc12,"inconclusive: 28.2 µM [inhibitor, single point]",–
Cc1nn(-c2ccccc2)c(C)c1/C=N/NC(=O)CSc1nc2ccccc2c(=O)n1-c1ccc(Br)cc1,–,inactive: 2%
C=CCn1c(=N)c(C(=O)NCCCOC)cc2c(=O)n3cc(C)ccc3nc21,"inconclusive: 31.6 µM [inhibitor, single point]",–
COC(=O)CCC(C)C1CCC2C3C(O)C[C@@H]4CC(O)CC[C@@]4(C)C3CC(O)[C@]12C (stereo partly drawn),–,inactive: -0.313%
CCOC(=O)CCn1cnc2onc(-c3cc(OC)ccc3Cl)c2c1=O,–,inactive: -1.92%
C/C(=N\NC(N)=S)c1ccc(Cl)s1,active: 0.562 µM,–
C#CCOCCOCCOCCNc1nc(N2CCN(C(=O)[C@H]([C@@H](C)CC)n3cc(CCCN=C(N)N)nn3)CC2)nc(N2CCN(C(=O)[C@H]([C@@H](C)CC)n3cc(CCCN=C(N)N)nn3)CC2)n1,"inconclusive: 28.2 µM [inhibitor, single point]",–
O=C(Cc1cn2ccsc2n1)Nc1cccc2cnccc12,"inconclusive: 20 µM [inhibitor, single point]",–
CC(=O)[C@H](CC(C)C)NC(=O)[C@@H](CC(C)C)NC(=O)[C@H](CC(C)C)NC(=O)OCc1ccccc1,active: 0.0035 µM,–
CCOC(=O)N1CCN(c2cc(NCCC(=O)O)c3c4c(onc24)-c2ccccc2C3=O)CC1,"inconclusive: 31.6 µM [inhibitor, single point]",–
Cc1[nH]n(-c2ncc(-c3ccc(Cl)cc3)s2)c(=O)c1C(c1ccc(Cl)cc1)C(C#N)C#N (stereo not drawn),"inconclusive: 31.6 µM [inhibitor, single point]",–
COc1ccc(Cn2c(SCc3cc(C)ccc3C)nc3cc(OC)c(OC)cc3c2=N)cc1,"inconclusive: 28.2 µM [inhibitor, single point]",–
CCOC(=O)c1ccc(NC(=O)CSc2nc(C)cc(=O)[nH]2)cc1,"inconclusive: 31.6 µM [inhibitor, single point]",–
CCOC(=O)CC1C(=O)NCCN1C(=O)c1cc2c(=O)n3ccccc3nc2s1 (stereo not drawn),active: 22.4 µM,–
C[C@@H](NC(=O)C1(N)CCCC1)C(=O)O,–,inactive: 2.1%
Clc1ccc2c(N/N=C/c3ccc(Br)cc3)ccnc2c1,"inconclusive: 25.1 µM [inhibitor, partial curve]",–
Cc1cccc(-c2cc3nc(-c4ccccc4)cc(N4CCC5(CC4)OCCO5)n3n2)c1,"inconclusive: 20 µM [inhibitor, partial curve]",–
Cc1ccc(NC(=O)CCn2nc(-c3ccccc3)c3ccccc3c2=O)c(C)c1,–,inactive: -4.9%
Clc1ccc2c(N/N=C/c3cccc(Br)c3)ccnc2c1,"inconclusive: 28.2 µM [inhibitor, single point]",–
CN1CCN(c2ncc3nc(-c4cccc(C#N)c4)c(=O)n(C[C@H]4CCCO4)c3n2)CC1,"inconclusive: 20 µM [inhibitor, single point]",–

Compound,Potency,"max response, negative = inhibition"
O=C(NCCCN1CCN(CCCNC(=O)c2cc([N+](=O)[O-])ccc2Cl)CC1)c1cc([N+](=O)[O-])ccc1Cl,"inconclusive: 20 µM [inhibitor, single point]",–
COc1ccc(NC(=O)C2CCN(S(=O)(=O)c3cc(-c4noc(C)n4)ccc3C)CC2)cc1,–,inactive: 0.434%
CC(Nc1ccccc1)C(=O)Nc1ccc(F)cc1 (stereo not drawn),–,inactive: 1.74%
COc1cc(/C=C2\SC(=Nc3ccccc3)N(CCc3c[nH]c4ccccc34)C2=O)ccc1OC(C)C(=O)O (stereo not drawn),"inconclusive: 28.2 µM [inhibitor, single point]",–
COc1ccc(-c2cc(C(F)(F)F)nc(SCc3cccc(C(=O)O)c3)n2)cc1,"inconclusive: 28.2 µM [inhibitor, single point]",–
Cc1ccc2c(n1)sc1c(=O)n(-c3cccc(C(F)(F)F)c3)nnc12,–,inactive: -1.45%
O=[N+]([O-])c1cc(S(=O)(=O)Nc2ccccc2)ccc1-n1nnc2ccccc21,active: 11.2 µM,–
CCOC(=O)c1c(NC(=O)/C=C/c2ccc(C)o2)sc(C)c1C,"inconclusive: 28.2 µM [inhibitor, single point]",–
Cc1ccc(SCC(=O)Nc2ccc(N3CCN(C)CC3)c(F)c2)cc1,–,inactive: -0.901%
COc1ccc(OC)c(Nc2ncnc3c2cnn3-c2cccc(C)c2)c1,–,inactive: -9.94%
NC(=S)N/N=C\c1ccc(-c2cccc(Cl)c2Cl)o1,active: 0.631 µM,–
CCOc1ccc2c(c1)c(=O)c(C(=O)c1ccc3c(c1)OCO3)cn2Cc1ccc(F)cc1,–,inactive: -0.971%
CCCCC[C@H](O)/C=C/[C@@H]1[C@H]2C/C(=C/CCCC(=O)O)C[C@H]2C[C@H]1O,–,inactive: 3.44%
COc1ccc(NS(=O)(=O)c2ccc(N3CCCCS3(=O)=O)cc2)cc1Cl,–,inactive: -5.54%
CCCCCCCC/C=C\CCCCCCCC(=O)N(CCO)CCO,–,inactive: 1.3%
CCOC(=O)c1sc(NC(=O)C(CC)OC(=O)C(CC(C)C)NC(=O)c2ccccc2)nc1C (stereo not drawn),active: 10 µM,–
CCOc1ccc(NC(=O)c2cc3cc4ccc(OC)cc4nc3o2)cc1,"inconclusive: 11.2 µM [inhibitor, partial curve]",–
CN(C)c1cccc(C(=O)OCC(=O)Nc2ccccc2Sc2ccccc2)c1,"inconclusive: 28.2 µM [inhibitor, single point]",–
O=c1[nH]c(=O)n(CCc2ccc(F)cc2)c(O)c1C=NCc1ccc2c(c1)OCO2,active: 12.6 µM,–
COc1ccccc1NC(=O)c1ccc2nc(-c3ccccc3)c(-c3ccccc3)nc2c1,–,inactive: 5.03%
CCc1nc(SCC(=O)c2cc(C)ccc2C)n[nH]1,"inconclusive: 28.2 µM [inhibitor, single point]",–
Cc1cccc(NC(=O)COC(=O)CNC(=O)C2CCCCC2)c1,active: 7.08 µM,–
